Some of the results follow. No stated cut-off is given here; in the data, active = 3.2 or more and inactive = the rest. The signal is at background level for most entries.
Assays:
Test in all cases: enrichment score (SH2-bound / input frequency) (ratio); bacterial display of known human phosphotyrosine sites (pTyr-Var adds point mutants) read by sequencing; higher = stronger binding; tyrosines were phosphorylated by kinases first
Conditions in all cases: peptide library: pTyr-Var
SHP2 C-SH2 domain E139D = target: SHP2 C-SH2 domain E139D
[1] = target: SHP2 C-SH2 domain wild-type
SHP2 N-SH2 domain L43F = target: SHP2 N-SH2 domain L43F
SHP2 N-SH2 domain T42A = target: SHP2 N-SH2 domain T42A
SHP2 N-SH2 domain T52S = target: SHP2 N-SH2 domain T52S
[2] = target: SHP2 N-SH2 domain wild-type

Measured: enrichment score
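Further: displayed peptides selected on beads carrying the immobilized SH2 domain, with library peptides lacking any tyrosine serving as negative controls.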

RFVTRYIFNRE [HLA-DQB1_Y62_YF]
inactive: SHP2 C-SH2 domain E139D 0.395 | [1] 0.377 | SHP2 N-SH2 domain L43F 0.33 | SHP2 N-SH2 domain T42A 0.557 | SHP2 N-SH2 domain T52S 0.473 | [2] 0.344

ALVDTYCRHNF [HLA-DRB1_Y107_A103L_YF]
inactive: SHP2 C-SH2 domain E139D 1.41 | [1] 1.4 | SHP2 N-SH2 domain L43F 1.31 | SHP2 N-SH2 domain T42A 1.2 | SHP2 N-SH2 domain T52S 1.21 | [2] 1.56

AAVDNYCRHNF [HLA-DRB1_Y107_T106N_YF]
inactive: SHP2 C-SH2 domain E139D 0.87 | [1] 1.45 | SHP2 N-SH2 domain L43F 1.14 | SHP2 N-SH2 domain T42A 1.35 | SHP2 N-SH2 domain T52S 1.01 | [2] 1.03

YSMGCYEFSLG [HMGCL_Y198_I200F]
inactive: SHP2 C-SH2 domain E139D 1.04 | [1] 0.825 | SHP2 N-SH2 domain L43F 0.779 | SHP2 N-SH2 domain T42A 0.753 | SHP2 N-SH2 domain T52S 0.702 | [2] 1.24

EWLRGYLENGK [HLA-C_Y195_R194G]
inactive: SHP2 C-SH2 domain E139D 1.08 | [1] 0.893 | SHP2 N-SH2 domain L43F 1.09 | SHP2 N-SH2 domain T42A 1.13 | SHP2 N-SH2 domain T52S 1.12 | [2] 1.05

VEQIHYIGQNE [HMOX2_Y140_R137Q]
inactive: SHP2 C-SH2 domain E139D 0.816 | [1] 0.658 | SHP2 N-SH2 domain L43F 0.845 | SHP2 N-SH2 domain T42A 0.87 | SHP2 N-SH2 domain T52S 0.812 | [2] 0.907

FCRHNYGVGES [HLA-DRB1_Y112_V115G_YF]
inactive: SHP2 C-SH2 domain E139D 1.8 | [1] 1.84 | SHP2 N-SH2 domain L43F 1.61 | SHP2 N-SH2 domain T42A 1.66 | SHP2 N-SH2 domain T52S 1.56 | [2] 1.71

SHSMKYFDTAV [HLA-C_Y31_R30K]
inactive: SHP2 C-SH2 domain E139D 0.903 | [1] 0.844 | SHP2 N-SH2 domain L43F 0.782 | SHP2 N-SH2 domain T42A 0.823 | SHP2 N-SH2 domain T52S 0.96 | [2] 0.804

QKFMAYPSQGG [HLCS_Y236_L237P]
inactive: SHP2 C-SH2 domain E139D 1.87 | [1] 1.1 | SHP2 N-SH2 domain L43F 1.22 | SHP2 N-SH2 domain T42A 1.46 | SHP2 N-SH2 domain T52S 1.31 | [2] 1.31

RYVTRYIYNRE [HLA-DQB1_Y62]
inactive: SHP2 C-SH2 domain E139D 0.22 | [1] 0.254 | SHP2 N-SH2 domain L43F 0.224 | SHP2 N-SH2 domain T42A 0.232 | SHP2 N-SH2 domain T52S 0.226 | [2] 0.227

SHSMRYFYTAV [HLA-C_Y31_D33Y]
active: SHP2 N-SH2 domain T42A 6.65
inactive: SHP2 C-SH2 domain E139D 2.69 | [1] 3.17 | SHP2 N-SH2 domain L43F 2.98 | SHP2 N-SH2 domain T52S 3.12 | [2] 2.39

RLVTRYIYNRE [HLA-DQB1_Y62_Y58L]
inactive: SHP2 C-SH2 domain E139D 0.312 | [1] 0.371 | SHP2 N-SH2 domain L43F 0.37 | SHP2 N-SH2 domain T42A 0.106 | SHP2 N-SH2 domain T52S 0.112 | [2] 0.213

FSMGCYEISLE [HMGCL_Y198_G203E_YF]
inactive: SHP2 C-SH2 domain E139D 0.768 | [1] 1.17 | SHP2 N-SH2 domain L43F 0.848 | SHP2 N-SH2 domain T42A 0.826 | SHP2 N-SH2 domain T52S 0.652 | [2] 1.22

RYVSRYIYNRE [HLA-DQB1_Y62_T60S]
inactive: SHP2 C-SH2 domain E139D 0.112 | [1] 0.326 | SHP2 N-SH2 domain L43F 0.256 | SHP2 N-SH2 domain T42A 0.273 | SHP2 N-SH2 domain T52S 0.68 | [2] 0.249

RGVTRYIYNRE [HLA-DQB1_Y62_Y58G]
inactive: SHP2 C-SH2 domain E139D 0.257 | [1] 0.252 | SHP2 N-SH2 domain L43F 0.202 | SHP2 N-SH2 domain T42A 0.22 | SHP2 N-SH2 domain T52S 0.199 | [2] 0.268

YSMGCYEIYLG [HMGCL_Y198_S201Y]
inactive: SHP2 C-SH2 domain E139D 1.29 | [1] 1.91 | SHP2 N-SH2 domain L43F 1.63 | SHP2 N-SH2 domain T42A 1.26 | SHP2 N-SH2 domain T52S 1.17 | [2] 1.99

YCRHNYGVGES [HLA-DRB1_Y112_V115G]
inactive: SHP2 C-SH2 domain E139D 1.69 | [1] 1.55 | SHP2 N-SH2 domain L43F 1.76 | SHP2 N-SH2 domain T42A 1.48 | SHP2 N-SH2 domain T52S 1.55 | [2] 1.53

RFLERDIYNRE [HLA-DPB1_Y57_Y57D]
inactive: SHP2 C-SH2 domain E139D 0.807 | [1] 0.545 | SHP2 N-SH2 domain L43F 0.99 | SHP2 N-SH2 domain T42A 0.655 | SHP2 N-SH2 domain T52S 0.762 | [2] 0.775
